Experimental findings from PubChem BioAssay AID1240 (Sanford-Burnham Center for Chemical Genomics, 2008) are described below.

Molecules are shown by their SMILES. The whole screen tested about 50,000 compounds, of which about 800 (1.6%) showed an effect of 50% or more. The list shows a part of the results.

For this assay, the target named is Bcl-2-like protein 10 (Homo sapiens) (UniProt Q9HD36). The experiment in a line: TR3 peptide-Bcl-B binding displacers, biochemical primary FP assay, phenotype converters (AID 1240).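 Note: 0% = Bcl-B with tracer peptide and DMSO and 100% = tracer peptide lacking Bcl-B.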 The settings on record: GST-Bcl-B / FITC-TR3 peptide fluorescence polarization; stronger effect = higher value; compound at 3.75 mg/L. For orientation: Polarisation of emitted light reports the rotation of a fluorescent probe.
UniProt Q9HD36, sequence (Q9HD36 whole entry, looked up): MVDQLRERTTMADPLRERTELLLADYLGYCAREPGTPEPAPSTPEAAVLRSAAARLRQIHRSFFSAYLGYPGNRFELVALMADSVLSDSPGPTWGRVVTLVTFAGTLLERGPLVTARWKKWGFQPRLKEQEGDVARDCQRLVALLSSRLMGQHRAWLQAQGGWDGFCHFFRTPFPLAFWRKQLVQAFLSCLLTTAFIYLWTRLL
On to `O=C1N/C(=N\Nc2ccccc2)S/C1=C\c1ccc(Cl)cc1Cl`, for which the displacement was found to be 5.2%. Next, `COc1ccc(CC(=O)Nc2ccc3c(c2)Cc2ccccc2-3)cc1OC`: -7.7%; `CN(C)c1ccc(/C=N/N=C2/SC(CC(=O)O)C(=O)N2c2ccc(O)cc2)cc1` (centres undefined): 10.8%. Under `Cc1ccc(CSc2nnc(-c3ccco3)o2)c(C)c1` stands -8.7%; under `CCN(CC)c1nc(N)nc(NS(=O)(=O)c2ccc(Cl)cc2)n1`, 2.5%; under `CC1=C(C(=O)OCCC#N)C(c2cc3c(cc2Br)OCO3)NC(=O)N1` (centres undefined), 19.9%. As for `Cc1ccccc1C(=O)Nc1cccc(Cl)c1`, the displacement was -4.6%. Turning to `O=C(NCCOCc1ccccc1)c1ccc(Cl)cc1Cl`, the displacement was determined as 14.2%. Under `COC(=O)c1c(-c2ccc(OC)cc2)csc1N` stands 5.7%. Under `COC(=O)c1cn(C(=O)OC)c2ccccc12` stands 11.6%. Under `CCOC(=O)c1c(N2C(=O)C3CC(C)=C(C)CC3C2=O)sc(C)c1C` (centres undefined) stands -10.4%. Take `COC(=O)C1C(=O)N(C)C(c2ccccc2)C1C(=O)OC` (centres undefined): the displacement came to 8.4%.

On to `COc1cc(Br)cc(/C=N/NC(=O)Cn2c3ccccc3c(=O)c3ccccc32)c1O`, for which the displacement is -2.8%. For `COC(=O)c1cc(NS(=O)(=O)c2c(C)cc(C)cc2C)cc(C(=O)OC)c1`, the displacement is 12.3%. For `Cc1ccc(C(C)C)c(OCC(=O)Nc2ccc(Cl)cn2)c1`, the displacement is -2.4%. Next, `Cc1ccc(O)c(NC(=O)c2ccc(-c3ccccc3)cc2)c1`: 12.4%; `COc1cc(/C=C2/SC(=S)N(CC(=O)N3CCOCC3)C2=O)cc(OC)c1OC`: 13.2%; `CCN(CC)c1ccc(NC(=O)c2cc(Br)ccc2OC)cc1`: 18.5%. Next, `CC(Oc1ccc(Cl)cc1)C(=O)NN` (centres undefined): 8.9%; `O=C(c1cccc([N+](=O)[O-])c1)N1N=C(c2ccccc2)CC1(O)C(F)(F)F` (centres undefined): 16.2%; `Cc1ccc(/C=C(/NC(=O)c2ccccc2I)C(=O)O)o1`: 8.2%. Under `O=[N+]([O-])c1cc(C(F)(F)F)ccc1Sc1nnnn1-c1ccccc1` stands -6%; under `Cc1ccc(-c2cc(C(F)(F)F)n3ncc(C(=O)N4CCN(c5ccc(F)cc5)CC4)c3n2)cc1`, 11.4%. As to `Cc1nnc(N/N=C\c2ccc(C(F)(F)F)cc2)[nH]c1=O`, the displacement is -8.3%. Under `Cc1cc(Cl)ccc1OCC(=O)Nc1cc(-c2nc3ccccc3o2)ccc1Cl` stands 8.9%; under `CC(C)(CO)N=C1NS(=O)(=O)c2ccccc21`, 12.1%. Next, `CCOc1ccc(C(=O)Nc2ccc(O)c(-c3nc4ccccc4s3)c2)cc1Cl`: 6.3%; `COc1ccc(C2SCC(=O)N2CCc2ccc(OC)c(OC)c2)c(OC)c1` (centres undefined): -6.4%. For `C=CCNC(=O)C(=O)NC1CCCCC1`, the displacement worked out at 17.8%. As to `CCOC(=O)c1c(NC(=O)CC2Nc3ccccc3NC2=O)sc2c1CCCC2` (centres undefined), the displacement was found to be 130%. Under `COc1cc(Br)c(-c2cc3c(ccc4ccccc43)oc2=O)cc1OC` stands 0%.

With `O=C(Nc1ccccc1O)c1cc(Cl)ccc1Cl`, the displacement was -5.3%.

Regarding `Cc1cc(C)n(-c2cc(NCc3ccccc3)nc(-c3ccccc3)n2)n1`, the displacement was -0.3%. Under `CCOC(=O)C1=C(C)N=c2s/c(=C\c3ccc(-c4ccc([N+](=O)[O-])cc4)o3)c(=O)n2C1c1ccc2c(c1)OCO2` (centres undefined) stands -13.9%; under `COc1ccc(Br)cc1/C=C/C(=O)Nc1ccc(-c2nc3ncccc3o2)cc1`, -4.5%. As for `CCOC(=O)C1=C(C)N=c2s/c(=C\c3ccc4c(c3)OCO4)c(=O)n2C1/C=C/c1ccccc1` (centres undefined), the displacement was found to be 0.9%. Take `CCOc1ccc(C2(Cc3ccccc3)C(=O)c3ccccc3C2=O)cc1`: the displacement was 15.4%.

On to `COc1ccc(C2C(C#N)=C(N)SC(N)=C2C#N)c(OC)c1`, for which the displacement was -34.6%.

As to `O=C(N/N=C/c1ccc(Cl)cc1)c1ccc(O)cc1`, the displacement was -1.1%. In the case of `COc1ccc(C2CC(c3ccccc3)=Nc3ccccc3S2)cc1OC` (centres undefined), the displacement was -0.2%. Under `N#Cc1c(NC(=O)CCN2C(=O)c3ccccc3C2=O)sc2c1CCCC2` stands 16.4%; under `COc1ccc(-c2n[nH]c(=S)n2-c2ccc(C)cc2)cc1`, 2.2%. Next, `Cc1c(NC(=O)CN(c2cccc(Cl)c2)S(=O)(=O)c2ccccc2)c(=O)n(-c2ccccc2)n1C`: 5.1%; `COc1ccc(Cl)cc1N(CC(=O)NCc1ccco1)S(=O)(=O)c1ccc(C)c([N+](=O)[O-])c1`: -13.1%.

`CC(C)(C)OC(=O)N1N=C(c2ccc(Br)cc2)CC1(O)C(F)(F)F` (centres undefined): the displacement was determined as 13.6%. In the case of `Cc1ccccc1-c1nc2ccccc2c(=O)n1/N=C/c1c[nH]c2ccccc12`, the displacement was 9.6%. As for `O=C(Nc1ccccc1Cl)c1cccc(F)c1`, the displacement was -1.5%. Under `CCOc1ccc2nc(C)c(C/C=C(/C)Cl)c(Cl)c2c1` stands -4.2%. Next, `COc1ccc(C2c3c(n(C)c(=O)n(C)c3=O)N=C3c4ccccc4C(=O)C32)cc1OC` (centres undefined): 6.4%.

Turning to `COc1ccc(C2(CNC(=O)c3cc4ccccc4o3)CCCC2)cc1OC`, the displacement was -17.2%. Under `CCOc1ccccc1NC(=O)CN(c1ccc(Cl)cc1)S(C)(=O)=O` stands -4.1%; under `O=C(/C=C/c1ccccc1OCc1ccccc1)c1ccc(Br)cc1`, 12.6%.

In the case of `CCc1nnc(NC(=O)CC(c2ccccc2)c2ccccc2)s1`, the displacement was -0.3%. Under `O=C(Nc1ccc2oc(-c3ccc(F)cc3Cl)nc2c1)c1ccc(Br)o1` stands 14%; under `CCOC(=O)c1cn(CC)c2cc(N(C)CCc3ccc(OC)c(OC)c3)c(F)cc2c1=O`, 7.3%. Under `O=C(Nc1ccc(Cl)cc1)Nc1nnc(/C=C/c2ccccc2Cl)s1` stands 1.3%.

Take `O=Cc1ccc(OC(=O)c2ccc(I)cc2)cc1`: the displacement was 2.3%.

As for `Cc1ccc(C(O)(CNCc2ccccc2)c2ccc(Br)cc2)cc1` (centres undefined), the displacement was found to be 11.1%. Under `Cc1cc(C)c(COCCOCc2c(C)cc(C)c(/C=N/O)c2C)c(C)c1/C=N/O` stands 8.9%.

Turning to `CCOC(=O)c1c(NC(=O)c2cccc(OC)c2)sc(C(=O)Nc2ccccc2F)c1C`, the displacement amounted to 1.6%.

Turning to `CCOCCOCCC(C(=O)O)P(=O)(c1ccccc1)c1ccccc1` (centres undefined), the displacement was 8.9%. Next, `CC(C)C(=O)Nc1ccc(O)c(-c2nc3cc(Cl)ccc3o2)c1`: -13.3%; `CN(C)c1ccc2c(=O)[nH][nH]c(=O)c2c1`: 9.3%. For the compound `O=C(O)c1ccc(Oc2ccc(NC(=O)c3cccc(F)c3)cc2)cc1`, the displacement came to 14.9%. `O/N=C1/CCCc2c1[nH]c1ccccc21`: the displacement worked out at 13.1%. Under `Cc1cccc(N=C2NC(=O)/C(=C\c3ccc(Cl)cc3)S2)c1C` stands 8.3%; under `CC(=O)Nc1nc2c(s1)C(=O)NCC(C)(C)C2`, 7.7%; under `NC1=C(Nc2ccccc2)C(=O)c2ccccc2C1=O`, 13.5%. Next, `COc1ccc(N2C(=O)/C(=C\c3ccc(OC)cc3OC)N=C2c2ccccc2)cc1`: 192%.
